In all, about 340,000 compounds went through this assay and about 6,900 (2%) were called active. Rule as the data show it: active = inhibition above about 30%; inactive = below that, where a call was filed. This is a selection; strong and weak results do not stand in their true shares. Entries without a call were filed so in the source.

From PubChem BioAssay AID485344 (National Center for Advancing Translational Sciences (NCATS), 2010) come the findings set out here.

For the assay, the target named is D(2) dopamine receptor (Homo sapiens) (UniProt P14416). Nature of the assay: HTS Assay for Allosteric Antagonists of the Human D2 Dopamine Receptor: Primary Screen for Antagonists. Also: 0% is about no effect. The settings on record: HEK293 TREx D2 cells, calcium flux, dopamine EC80; at 10 µM; stronger effect = higher value. A digest of the protocol: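 Read-out: kinetic calcium fluorescence (1 cycle/s) in inducible HEK293 T-REx D2 cells after an EC80 dopamine addition that followed 180 s compound preincubation. Loss of the dopamine response indicates antagonism.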
Chain of UniProt P14416 (P14416 whole entry, looked up): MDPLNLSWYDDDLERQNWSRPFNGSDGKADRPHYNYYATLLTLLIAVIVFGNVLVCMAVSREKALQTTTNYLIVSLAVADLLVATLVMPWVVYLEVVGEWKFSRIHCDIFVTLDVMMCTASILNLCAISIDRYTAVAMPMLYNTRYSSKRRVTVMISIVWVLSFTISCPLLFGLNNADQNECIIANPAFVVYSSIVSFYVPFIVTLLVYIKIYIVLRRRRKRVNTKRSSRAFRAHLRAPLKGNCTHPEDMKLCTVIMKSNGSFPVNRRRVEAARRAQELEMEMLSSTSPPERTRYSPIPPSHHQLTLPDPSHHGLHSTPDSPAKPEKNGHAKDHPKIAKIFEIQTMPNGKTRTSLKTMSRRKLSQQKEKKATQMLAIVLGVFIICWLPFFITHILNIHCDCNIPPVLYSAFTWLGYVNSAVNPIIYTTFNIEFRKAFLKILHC
On the technique in general: A change in cytosolic calcium serves as a functional read-out for many receptors and channels.
By inhibition is commonly meant the change of the read-out against control, counted positive when it falls. Consider `O=C(c1ccccc1)c1ccc2nc(N3CCN(c4ccc(F)cc4)CC3)c3nncn3c2c1`, for which the inhibition was -6.19%. Then `Cc1ccc(S(=O)(=O)c2nnn3c2nc(N2CCN(c4cccc(C)c4C)CC2)c2ccccc23)cc1C`, with -14.7%; and `CCN(CC)C(=O)C(C)OC(=O)c1ccc(O)cc1` (stereo unspecified), with active: 30.3%; and `COc1ccccc1-c1cc2nc(C)c(CCC(=O)NC3CCCCC3)c(C)n2n1`, with -10.2%. Then `O=C(Nc1cc(F)ccc1F)c1cnn2c(C(F)F)cc(-c3ccccc3)nc12`, with 7.39%; and `COc1cc(OC)c(NC(=O)C(C)n2nc(-c3ccc(C)cc3)c3c(c2=O)CCCC3)cc1Cl` (stereo unspecified), with 4.03%. Then `N#Cc1ccccc1NC(=O)C(=O)NCC(c1cccnc1)N1CCc2ccccc21` (stereo unspecified), with -4.82%. For the molecule `CCOCCCNC(=O)Cn1nc(CC)n2c(cc3c(OC)cccc32)c1=O`, the inhibition is -1.1%. Then `COC(=O)c1ccc(NC(=O)CSc2nc3cc4ccccc4cc3[nH]2)cc1`, with 6.33%.

On to `CCOC(=O)CC(NC(=O)CCc1c(C)nc2cc(-c3ccccc3)nn2c1C)c1ccc(C)cc1` (stereo unspecified), for which the inhibition is -11.8%. Then `COc1ccccc1-c1cc(C(=O)N/N=C/c2ccc(C)s2)c2ccccc2n1`, with active: 47.7%; and `COc1ccc(NC(=O)c2nnn(CC(=O)Nc3cc(C)cc(C)c3)c2N)c(OC)c1`, with 17.9%; and `CCN(C(=O)c1cc(S(=O)(=O)N2CCCC2)cn1C)c1ccc(OC)cc1`, with -7.4%. Then `COc1ccc(Cn2c(SCc3ccc(C(=O)NCc4cccs4)cc3)nc3ccncc32)cc1`, with -0.887%. Then `O=S(=O)(c1ccccc1)c1nc(-c2ccco2)oc1SCc1ccc(F)cc1`, with 3.41%; and `COc1ccc(C23CC4CC(CC(C4)C2)C3)cc1C(=O)NCCN(C)C`, with active: 33.5%. For the molecule `CCCCC(=O)Nc1ccc(C(=O)OCc2cc(=O)n3ccsc3n2)cc1`, the inhibition stood at 9.31%. Then `Cc1ccc(NC(=O)Cn2c(=O)cc(-c3ccccc3)c3c(C)nn(C)c32)c(Cl)c1`, with 10.8%. For `Cc1ccc(C)c(NC(=O)Cn2c(=O)n(CC(=O)NCCc3ccccc3)c(=O)c3ccccc32)c1`, the inhibition was found to be 1.97%. Then `O=C(CCCn1c(=O)[nH]c2ccsc2c1=O)N1CCN(c2ccc(Cl)cc2)CC1`, with 5.28%; and `CCOC(=O)c1sc2cccc(F)c2c1S(=O)(=O)Nc1ccccc1F`, with 14%. Then `O=C(CSc1nnc(-c2ccc(Cl)cc2)c(-c2ccc(Cl)cc2)n1)NC1CCCC1`, with -6.82%. Then `Cc1ccc(-c2nc(CNC(=O)NC3CCCCC3)c(C)o2)cc1`, with 12.6%. For `CC(=O)c1cccc(NC(=O)Nc2cc3c(cc2N2CCCC2)n(C)c(=O)n3C)c1`, the inhibition was -12.4%. On to `CCc1ccc(C(=O)Nc2cccc(-c3nc4cc(C(C)C)ccc4o3)c2)cc1`, for which the inhibition is -3.24%. Then `CCn1cc(C(=O)NCc2ccccc2Cl)c(=O)c2cc(S(=O)(=O)N3CCCCCC3)ccc21`, with 4.31%.
